Results: the supplement of paper PMC10498489
The whole screen tested about 2,300 compounds, of which about 330 (14%) showed activity.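 How the source made its calls: active = median modified Z-score above 1.96; inactive = 1.96 or below.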 The entries are a selection whose mix differs from that of the whole data set.

The compounds below were run on HepG2 Srxn1-GFP reporter cells (+30 nM CDDO-Me) (assay: Srxn1-GFP intensity median modified Z-score relative to plate median; higher = stronger NRF2 / oxidative stress reporter activation, active = hit call of the paper). Details: 10 µM; exposure time: 24h.
Procedure, shortened: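 HepG2 Srxn1-GFP BAC reporter cells (20,000 per well, 96-well plates) were co-exposed to an NRF2 activator at 30 nM and compound at 10 μM (≤0.1% DMSO) for 24 h in three replicate plates. After formaldehyde fixation and Hoechst staining, confocal images were analysed per cell for cytoplasmic GFP, excluding images with under 100 cells. The value is the median over replicates of the per-plate modified Z-score of GFP intensity. Scaling used 1.4826 × median absolute deviation.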

Row | SMILES | Srxn1-GFP intensity median modified Z-score
1 | C[C@@H]1O[C@@H](O[C@H]2CC[C@]3(C=O)C4CC[C@]5(C)C(c6coc(O)c6)CC[C@]5(O)C4CC[C@]3(O)C2)[C@H](O)[C@H](O)[C@H]1O (stereo partly specified) [euspeclibcmpd1374] | active: 7.48
2 | CN1CC(C(=O)N[C@]2(C)O[C@@]3(O)C4CCCN4C(=O)C(Cc4ccccc4)N3C2=O)=CC2c3cccc4[nH]cc(c34)CC21 (stereo partly specified) [euspeclibcmpd823] | active: 113
3 | CC(NC(C)(C)C)C(=O)c1cccc(Cl)c1 (stereo unspecified) [euspeclibcmpd657] | inactive: -0.376
4 | C=CCSSCC=C [euspeclibcmpd1617] | inactive: -0.329
5 | O=C1C=CC(=O)c2ccccc21 [euspeclibcmpd1754] | active: 32.6
6 | O=[N+]([O-])C(Br)(CO)CO [euspeclibcmpd2257] | active: 6.25
7 | CNc1ccccc1C(=O)O [euspeclibcmpd1568] | inactive: -0.451
8 | COC(C)CC(=O)Nc1ccc([N+](=O)[O-])c(C(F)(F)F)c1 (stereo unspecified) | inactive: 1.79
9 | C[C@]12CCC(=O)CC1=CC=C1C2CC[C@@]2(C)C1CC[C@@]2(O)CCC(=O)O (stereo partly specified) [euspeclibcmpd2339] | inactive: -0.283
10 | COP(=O)(OC)C(O)C(Cl)(Cl)Cl (stereo unspecified) [euspeclibcmpd866] | active: 3.07
11 | CCSCCC(N)C(=O)O (stereo unspecified) [euspeclibcmpd1757] | inactive: -0.7
12 | Cc1cccc(C)c1NC(=O)CN1CCCC1=O [euspeclibcmpd1084] | inactive: -0.241
13 | CC(=O)c1c(O)cc(C)oc1=O [euspeclibcmpd1006] | active: 15.5
14 | N#Cc1[nH]n(-c2c(Cl)cc(C(F)(F)F)cc2Cl)c(=N)c1[S+]([O-])C(F)(F)F (stereo unspecified) [euspeclibcmpd821] | inactive: -0.323
15 | S=C=NCc1ccccc1 [euspeclibcmpd1105] | active: 100
16 | CCN1C[C@@]2(COC)C3[C@@H](OC)[C@H]4[C@@H]1[C@]3(C(OC)C[C@H]2O)C1C[C@@]2(O)[C@H](OC(=O)c3ccccc3)C1[C@]4(OC(C)=O)[C@@H](O)[C@@H]2OC (stereo partly specified) [euspeclibcmpd686] | inactive: 0.0544
17 | O=c1c2ccccc2[se]n1-c1ccccc1 [euspeclibcmpd2467] | inactive: 0.279
18 | C[N+]1(C)C2CCC1CC(OC(=O)C(CO)c1ccccc1)C2 (stereo unspecified) [euspeclibcmpd790] | inactive: -0.464
19 | NCC(O)c1ccc(O)cc1 (stereo unspecified) [euspeclibcmpd1039] | inactive: -0.0826
20 | COc1cc2c3cc1Oc1c(OC)c(OC)cc4c1[C@@H](Cc1cccc(c1)Oc1ccc(c(O)c1)C[C@@H]3N(C)CC2)N(C)CC4 [euspeclibcmpd1812] | active: 2.31
21 | O=c1ccc2cc(O[C@@H]3O[C@H](CO)[C@@H](O)[C@H](O)[C@H]3O)c(O)cc2o1 [euspeclibcmpd2096] | inactive: -0.413
22 | N=c1[nH]c(=N)[nH]c(=NC2CC2)[nH]1 [euspeclibcmpd1229] | inactive: -0.282
23 | COc1cc2c(cc1OC)C1C(=O)c3ccc4c(c3O[C@@H]1CO2)CC(C(C)C)O4 (stereo partly specified) [euspeclibcmpd1349] | active: 54.1
24 | COc1cc2c(c(OC)c1OC)-c1ccc(OC)c(=O)cc1[C@@H](NC(C)=O)CC2 [euspeclibcmpd73] | active: 13.3

Row | SMILES | Srxn1-GFP intensity median modified Z-score
25 | CO[C@H]1[C@H](O)[C@@H](O[C@H]2CC[C@]3(C=O)C4CC[C@]5(C)C(c6coc(O)c6)CC[C@]5(O)C4CC[C@@H]3C2)O[C@@H](C)[C@@H]1O (stereo partly specified) [euspeclibcmpd2165] | active: 3.39
26 | CC[N+]1(C)CCCC(OC(=O)C(O)(c2ccccc2)c2ccccc2)C1 (stereo unspecified) [euspeclibcmpd1115] | inactive: 0.0901
27 | NC1C[C@H]1c1ccccc1 (stereo partly specified) [euspeclibcmpd300] | inactive: 1.01
28 | CC[C@H]1C2CC3[C@@H]4N(C)c5ccccc5[C@]45C[C@@H](C2C5O)N3[C@@H]1O (stereo partly specified) [euspeclibcmpd1044] | inactive: -0.296
29 | N#CC(=Cc1cccc(O)c1)C(=O)O [euspeclibcmpd2014] | inactive: 0.195
30 | C[N+]1(C)CCc2cc3c(cc2[C@H]1C1OC(=O)c2c1ccc1c2OCO1)OCO3 (stereo partly specified) [euspeclibcmpd1466] | active: 2.41
31 | O=C(O)CC[N+](=O)[O-] [euspeclibcmpd2092] | inactive: -0.221
32 | COc1cc2ccc(=O)oc2c2ccoc12 [euspeclibcmpd1485] | inactive: -0.312
33 | C=CCc1ccc(OC)cc1 [euspeclibcmpd2023] | inactive: -0.433
34 | O=[N+]([O-])O[C@H]1CO[C@H]2[C@@H]1OC[C@H]2O[N+](=O)[O-] [euspeclibcmpd166] | inactive: -0.506
35 | O=C1C=C2C=CC3C[C@@]2(O1)[C@H]1CCCCN31 [euspeclibcmpd1211] | active: 9.38
36 | O=C(CCCN1CCC2(CC1)C(=O)NCN2c1ccccc1)c1ccc(F)cc1 [euspeclibcmpd405] | active: 10.2
37 | CC(O)(CS(=O)(=O)c1ccc(F)cc1)C(=O)Nc1ccc(C#N)c(C(F)(F)F)c1 (stereo unspecified) [euspeclibcmpd817] | inactive: -0.242
38 | COc1cc2c(c(OC)c1OC)-c1ccc(=O)c(O)cc1C(NC(C)=O)CC2 (stereo unspecified) [euspeclibcmpd2248] | inactive: -0.142
39 | CCC1(C2=NCCN2)Cc2ccccc2O1 (stereo unspecified) [euspeclibcmpd1254] | inactive: -0.176
40 | O=C(O)c1nn(Cc2ccc(Cl)cc2Cl)c2ccccc12 [euspeclibcmpd999] | inactive: 0.941
41 | COc1ccc2c(c1OC)C(=O)O[C@@H]2[C@H]1c2cc3c(cc2CCN1C)OCO3 [euspeclibcmpd2270] | inactive: 0.619
42 | Cc1cc(C(C#N)c2ccc(Cl)cc2)c(Cl)cc1NC(=O)c1cc(I)cc(I)c1O (stereo unspecified) [euspeclibcmpd694] | active: 9.76
43 | O=c1[nH]oc2c1CCNC2 [euspeclibcmpd1005] | inactive: -0.162
44 | O=C1CCO1 [euspeclibcmpd876] | inactive: 0.468
45 | O=C1C(Cl)=C(Cl)C(=O)C(Cl)=C1Cl [euspeclibcmpd1739] | active: 25.8
46 | CS(=N)(=O)CCC(N)C(=O)O (stereo unspecified) [euspeclibcmpd1752] | inactive: -0.455
47 | COc1ccc(OC)c(C(O)C(C)N)c1 (stereo unspecified) [euspeclibcmpd191] | inactive: -0.0407
48 | CCCC(C)(COC(N)=O)COC(=O)NC(C)C (stereo unspecified) [euspeclibcmpd46] | inactive: 0.166

Row | SMILES | Srxn1-GFP intensity median modified Z-score
49 | O=C(O)C1[O][Sb]2[O]C(=O)C([O]2)C(C(=O)O)[O][Sb]2[O]C(=O)C1[O]2 (stereo unspecified) [euspeclibcmpd2437] | active: 3.34
50 | COc1cc(OC)c(OC)cc1C=O [euspeclibcmpd1681] | inactive: -0.205
51 | C[N+]1(C)CCCC(OC(=O)C(O)(c2ccccc2)c2ccccc2)C1 (stereo unspecified) [euspeclibcmpd182] | inactive: 0.227
52 | C#CC(C)(O)CC (stereo unspecified) [euspeclibcmpd1276] | active: 1.99
53 | COc1cc([C@@H]2c3cc4c(cc3[C@H](OC(C)=O)[C@H]3COC(=O)C23)OCO4)cc(OC)c1OC (stereo partly specified) [euspeclibcmpd2106] | active: 13.1
54 | COc1ccccc1N1CCNCC1 [euspeclibcmpd1760] | inactive: -0.162
55 | C[C@]12CCC3c4ccc(OC(=O)N(CCCl)CCCl)cc4CCC3C1CC[C@@H]2O (stereo partly specified) [euspeclibcmpd984] | active: 2.13
56 | O=C(NC(O)C(Cl)(Cl)Cl)NC(O)C(Cl)(Cl)Cl (stereo unspecified) [euspeclibcmpd2304] | inactive: 0.189
57 | CN1C(=O)CCS(=O)(=O)C1c1ccc(Cl)cc1 (stereo unspecified) [euspeclibcmpd942] | inactive: 0.154
58 | O=P1(N(CCCl)CCCl)NCCCO1 (stereo unspecified) [euspeclibcmpd2335] | inactive: -0.33
59 | c1ccc2c(c1)sc1ccccc12 [euspeclibcmpd88] | active: 3.54
60 | CC(C)CC1C(=O)N2CCC[C@H]2[C@@]2(O)O[C@](NC(=O)C3=CC4c5cccc6[nH]c(Br)c(c56)CC4N(C)C3)(C(C)C)C(=O)N12 (stereo partly specified) [euspeclibcmpd39] | active: 23.2
61 | COc1cc2c(cc1OC)-c1c(oc3c4c(ccc3c1=O)OC(C(C)C)C4)CO2 (stereo unspecified) [euspeclibcmpd1802] | inactive: -0.169
62 | COc1ccc(C(CN(C)C)C2(O)CCCCC2)cc1 (stereo unspecified) [euspeclibcmpd2154] | inactive: -0.2
63 | NCC(=O)c1ccccc1 [euspeclibcmpd1673] | active: 3.04
64 | C[C@]12CCC3C(CC[C@H]4CC(=O)CC[C@]34C)C1CCC2=O (stereo partly specified) [euspeclibcmpd1450] | inactive: -0.253
65 | O=c1[nH]c2ccccc2n1C1CCN(CCCC(c2ccc(F)cc2)c2ccc(F)cc2)CC1 [euspeclibcmpd392] | inactive: -2.27
66 | CCC(C)[C@H]1O[C@]2(C=C[C@@H]1C)C[C@@H]1C[C@@H](C/C=C(\C)[C@@H](OC3C[C@H](OC)C(O[C@H]4C[C@H](OC)[C@@H](O)[C@H](C)O4)[C@H](C)O3)[C@@H](C)/C=C/C=C3\CO[C@@H]4[C@H](O)C(C)=CC(C(=O)O1)[C@]34O)O2 (stereo partly specified) [euspeclibcmpd1285] | active: 16.3
67 | O=[N+]([O-])O[C@@H]1CO[C@H]2[C@@H]1OC[C@@H]2O [euspeclibcmpd605] | active: 3.27
68 | CC(=O)Nc1cc([As](=O)(O)O)ccc1O [euspeclibcmpd2446] | inactive: 0.0429
69 | Cc1cc2c(C(C)C)c(O)c(O)c(C=O)c2c(O)c1-c1c(C)cc2c(C(C)C)c(O)c(O)c(C=O)c2c1O [euspeclibcmpd2093] | active: 3.73
70 | Cc1cc2c(C(C)C)c(O)c(O)c(C=O)c2c(O)c1-c1c(C)cc2c(C(C)C)c(O)c(O)c(C=O)c2c1O [euspeclibcmpd1471] | active: 3.88
71 | NCCc1ccccc1 [euspeclibcmpd2078] | inactive: 0.0184
